Tests used:
Cytochrome P450 1A2 = target: T1, Cytochrome P450 1A2 (Homo sapiens, UniProt P05177); conditions: bti-tn-5b1-4
T1 sequence (P05177 whole entry): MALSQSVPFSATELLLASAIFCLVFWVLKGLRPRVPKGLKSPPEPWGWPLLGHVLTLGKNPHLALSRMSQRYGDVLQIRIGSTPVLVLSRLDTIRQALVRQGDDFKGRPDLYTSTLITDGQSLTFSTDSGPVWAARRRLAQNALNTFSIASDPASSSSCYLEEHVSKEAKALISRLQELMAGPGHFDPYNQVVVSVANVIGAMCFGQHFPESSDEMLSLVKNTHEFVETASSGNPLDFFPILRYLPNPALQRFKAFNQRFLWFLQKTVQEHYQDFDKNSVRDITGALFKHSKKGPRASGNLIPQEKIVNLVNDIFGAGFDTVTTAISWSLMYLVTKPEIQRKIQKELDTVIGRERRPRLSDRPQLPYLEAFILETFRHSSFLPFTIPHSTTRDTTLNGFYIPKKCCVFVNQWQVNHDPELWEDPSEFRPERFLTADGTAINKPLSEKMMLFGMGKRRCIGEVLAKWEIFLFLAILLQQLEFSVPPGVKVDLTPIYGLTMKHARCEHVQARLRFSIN

Cytochrome P450 2A6 = target: T2, Cytochrome P450 2A6 (Homo sapiens, UniProt P11509); conditions: bti-tn-5b1-4
T2 sequence (P11509 whole entry): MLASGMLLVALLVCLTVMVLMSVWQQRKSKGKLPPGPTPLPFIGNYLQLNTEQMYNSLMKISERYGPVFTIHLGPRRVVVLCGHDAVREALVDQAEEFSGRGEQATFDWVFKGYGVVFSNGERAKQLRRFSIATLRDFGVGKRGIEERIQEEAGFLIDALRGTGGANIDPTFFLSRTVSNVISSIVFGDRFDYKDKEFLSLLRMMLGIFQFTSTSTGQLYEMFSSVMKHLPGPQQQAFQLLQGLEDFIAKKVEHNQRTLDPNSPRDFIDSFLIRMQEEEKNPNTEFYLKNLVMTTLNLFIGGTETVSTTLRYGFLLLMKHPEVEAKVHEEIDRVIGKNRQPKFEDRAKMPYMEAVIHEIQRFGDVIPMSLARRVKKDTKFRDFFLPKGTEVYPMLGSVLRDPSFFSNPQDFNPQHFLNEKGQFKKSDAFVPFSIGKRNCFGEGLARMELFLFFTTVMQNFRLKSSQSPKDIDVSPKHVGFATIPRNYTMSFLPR

Cytochrome P450 2C19 = Cytochrome P450 2C19 (Homo sapiens, UniProt P33261); conditions: bti-tn-5b1-4
Cytochrome P450 2C19, sequence (P33261 whole entry): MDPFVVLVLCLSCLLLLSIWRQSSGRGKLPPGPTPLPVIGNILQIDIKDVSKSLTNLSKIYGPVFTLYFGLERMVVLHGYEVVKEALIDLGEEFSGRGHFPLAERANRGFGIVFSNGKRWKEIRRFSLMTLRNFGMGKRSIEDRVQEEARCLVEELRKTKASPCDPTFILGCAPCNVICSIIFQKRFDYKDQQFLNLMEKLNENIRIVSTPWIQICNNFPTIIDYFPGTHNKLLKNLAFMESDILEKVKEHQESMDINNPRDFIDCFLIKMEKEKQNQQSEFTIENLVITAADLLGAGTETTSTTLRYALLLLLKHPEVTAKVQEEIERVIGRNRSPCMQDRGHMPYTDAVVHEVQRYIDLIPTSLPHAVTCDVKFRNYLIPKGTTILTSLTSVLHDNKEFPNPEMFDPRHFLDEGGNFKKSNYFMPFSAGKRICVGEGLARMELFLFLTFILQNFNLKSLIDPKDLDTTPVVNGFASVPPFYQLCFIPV

Cytochrome P450 2C9 = Cytochrome P450 2C9 (Homo sapiens, UniProt P11712); conditions: bti-tn-5b1-4
Cytochrome P450 2C9, sequence (P11712 whole entry): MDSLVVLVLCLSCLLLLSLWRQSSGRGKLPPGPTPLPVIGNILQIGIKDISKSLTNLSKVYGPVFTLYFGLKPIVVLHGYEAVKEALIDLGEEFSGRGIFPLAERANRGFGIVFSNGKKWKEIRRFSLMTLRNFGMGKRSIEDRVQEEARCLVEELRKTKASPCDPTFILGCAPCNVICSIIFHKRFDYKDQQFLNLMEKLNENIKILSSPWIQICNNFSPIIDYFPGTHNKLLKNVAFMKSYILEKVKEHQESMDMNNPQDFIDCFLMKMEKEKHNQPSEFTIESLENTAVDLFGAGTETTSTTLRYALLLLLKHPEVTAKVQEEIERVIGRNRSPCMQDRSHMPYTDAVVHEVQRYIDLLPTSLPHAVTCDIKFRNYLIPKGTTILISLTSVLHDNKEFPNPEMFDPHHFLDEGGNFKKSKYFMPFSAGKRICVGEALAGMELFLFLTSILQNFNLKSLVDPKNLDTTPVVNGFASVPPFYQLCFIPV

Cytochrome P450 2D6 = Cytochrome P450 2D6 (Homo sapiens, UniProt P10635); conditions: bti-tn-5b1-4
Cytochrome P450 2D6, sequence (P10635 whole entry): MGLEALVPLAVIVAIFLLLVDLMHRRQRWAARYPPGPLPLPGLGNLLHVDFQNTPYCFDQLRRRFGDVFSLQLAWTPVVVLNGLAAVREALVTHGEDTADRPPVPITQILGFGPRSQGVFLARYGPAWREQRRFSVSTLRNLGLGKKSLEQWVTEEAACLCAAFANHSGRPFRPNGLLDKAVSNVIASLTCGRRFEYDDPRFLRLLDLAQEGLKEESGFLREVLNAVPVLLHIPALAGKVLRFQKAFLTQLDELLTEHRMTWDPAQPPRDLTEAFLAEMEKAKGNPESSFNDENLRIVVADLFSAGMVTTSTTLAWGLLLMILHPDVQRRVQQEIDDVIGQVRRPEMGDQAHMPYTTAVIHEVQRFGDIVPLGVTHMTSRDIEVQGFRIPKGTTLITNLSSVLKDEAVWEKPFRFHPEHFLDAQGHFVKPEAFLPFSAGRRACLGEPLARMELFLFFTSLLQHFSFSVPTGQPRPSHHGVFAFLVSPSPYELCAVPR

Cytochrome P450 2E1 = Cytochrome P450 2E1 (Homo sapiens, UniProt P05181); conditions: bti-tn-5b1-4
Cytochrome P450 2E1, sequence (P05181 whole entry): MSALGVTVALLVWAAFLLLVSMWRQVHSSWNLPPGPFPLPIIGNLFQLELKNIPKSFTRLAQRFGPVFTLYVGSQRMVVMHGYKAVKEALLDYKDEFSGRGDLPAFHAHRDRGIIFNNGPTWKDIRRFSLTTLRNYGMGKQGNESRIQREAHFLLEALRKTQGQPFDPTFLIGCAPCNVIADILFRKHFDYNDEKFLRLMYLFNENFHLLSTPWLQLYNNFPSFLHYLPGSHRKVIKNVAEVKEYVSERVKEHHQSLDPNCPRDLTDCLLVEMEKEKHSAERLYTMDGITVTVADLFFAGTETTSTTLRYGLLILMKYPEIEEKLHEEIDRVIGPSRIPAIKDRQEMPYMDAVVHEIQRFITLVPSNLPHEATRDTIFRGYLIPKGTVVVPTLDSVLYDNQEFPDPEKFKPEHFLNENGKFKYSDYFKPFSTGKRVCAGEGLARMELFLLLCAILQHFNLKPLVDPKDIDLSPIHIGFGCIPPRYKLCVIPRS

Cytochrome P450 3A4 = Cytochrome P450 3A4 (Homo sapiens, UniProt P08684); conditions: bti-tn-5b1-4
Cytochrome P450 3A4, sequence (P08684 whole entry): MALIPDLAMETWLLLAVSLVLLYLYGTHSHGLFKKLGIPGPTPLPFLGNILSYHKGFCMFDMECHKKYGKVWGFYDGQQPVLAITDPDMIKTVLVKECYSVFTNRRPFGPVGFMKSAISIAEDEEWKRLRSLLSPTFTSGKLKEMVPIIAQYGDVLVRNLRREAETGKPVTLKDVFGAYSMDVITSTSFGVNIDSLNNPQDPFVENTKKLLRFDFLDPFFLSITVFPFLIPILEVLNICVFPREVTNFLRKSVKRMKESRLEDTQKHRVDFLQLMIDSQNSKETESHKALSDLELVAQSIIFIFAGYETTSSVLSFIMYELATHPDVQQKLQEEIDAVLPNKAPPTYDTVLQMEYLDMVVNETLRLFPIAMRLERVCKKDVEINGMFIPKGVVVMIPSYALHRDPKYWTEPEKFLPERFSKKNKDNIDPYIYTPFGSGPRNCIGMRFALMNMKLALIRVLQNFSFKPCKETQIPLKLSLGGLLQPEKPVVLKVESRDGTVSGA

[1] = target: Voltage-gated inwardly rectifying potassium channel KCNH2 (Homo sapiens, UniProt Q12809); conditions: hek293
Voltage-gated inwardly rectifying potassium channel KCNH2, sequence (Q12809 whole entry): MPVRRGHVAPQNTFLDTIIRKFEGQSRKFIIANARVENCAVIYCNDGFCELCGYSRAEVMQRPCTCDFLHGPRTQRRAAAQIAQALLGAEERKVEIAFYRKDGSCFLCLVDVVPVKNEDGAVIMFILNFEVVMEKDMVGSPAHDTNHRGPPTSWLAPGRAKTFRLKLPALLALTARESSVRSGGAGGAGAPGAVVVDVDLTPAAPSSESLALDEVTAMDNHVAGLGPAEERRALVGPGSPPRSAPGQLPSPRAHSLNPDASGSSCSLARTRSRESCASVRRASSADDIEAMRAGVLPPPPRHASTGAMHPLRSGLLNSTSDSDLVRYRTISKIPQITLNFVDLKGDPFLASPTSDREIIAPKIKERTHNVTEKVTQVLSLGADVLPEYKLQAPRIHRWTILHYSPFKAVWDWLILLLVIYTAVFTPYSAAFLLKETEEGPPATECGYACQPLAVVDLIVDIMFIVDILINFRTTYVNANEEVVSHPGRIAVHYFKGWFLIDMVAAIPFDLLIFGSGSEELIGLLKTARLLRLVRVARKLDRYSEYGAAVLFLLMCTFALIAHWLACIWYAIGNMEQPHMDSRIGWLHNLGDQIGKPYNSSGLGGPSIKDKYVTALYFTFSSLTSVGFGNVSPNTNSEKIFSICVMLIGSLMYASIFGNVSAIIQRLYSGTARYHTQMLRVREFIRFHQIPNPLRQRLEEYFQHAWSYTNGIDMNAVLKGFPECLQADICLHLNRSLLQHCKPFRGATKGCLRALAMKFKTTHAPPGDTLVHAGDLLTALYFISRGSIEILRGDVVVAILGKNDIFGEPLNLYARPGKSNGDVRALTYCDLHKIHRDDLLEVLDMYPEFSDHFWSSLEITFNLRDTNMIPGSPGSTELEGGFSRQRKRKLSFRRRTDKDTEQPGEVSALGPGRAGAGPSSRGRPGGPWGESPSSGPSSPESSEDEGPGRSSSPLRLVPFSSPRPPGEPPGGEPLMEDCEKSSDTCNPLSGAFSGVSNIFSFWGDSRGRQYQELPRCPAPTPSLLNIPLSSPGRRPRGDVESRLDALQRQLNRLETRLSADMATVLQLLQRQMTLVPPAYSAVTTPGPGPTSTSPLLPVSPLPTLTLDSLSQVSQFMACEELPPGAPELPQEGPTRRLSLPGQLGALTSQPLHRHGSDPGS
Note: in other assays of this panel Not Active means under 50% inhibition at 10 µM.

CCn1cc(C(=O)O)c(=O)c2cc(F)c(N3CCN(C)CC3)cc21 [PEFLOXACIN]
Not Active: IC50 (Cytochrome P450 1A2) | Ki (Cytochrome P450 1A2) | IC50 (Cytochrome P450 2A6) | Ki (Cytochrome P450 2A6) | IC50 (Cytochrome P450 2C19) | Ki (Cytochrome P450 2C19) | IC50 (Cytochrome P450 2C9) | Ki (Cytochrome P450 2C9) | IC50 (Cytochrome P450 2D6) | Ki (Cytochrome P450 2D6) | IC50 (Cytochrome P450 2E1) | Ki (Cytochrome P450 2E1) | IC50 (Cytochrome P450 3A4) | Ki (Cytochrome P450 3A4) | IC50 [1] | Ki [1]

From ChEMBL document CHEMBL1909046, “DrugMatrix in vitro pharmacology data”
